From PMC6212790
Some of the results follow. At the low end of the ranking the order means little.

biological target: T1, GST-Rok (full length) (UniProt O34857); experiment: protein binding microarray; settings: Rok is a gene silencer of Bacillus subtilis; high values mean tight binding; most listed sequences are background and not binding sites; double strand, one strand shown;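 further: rank score from −0.5 (least bound) to 0.5 (best bound)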
T1 sequence: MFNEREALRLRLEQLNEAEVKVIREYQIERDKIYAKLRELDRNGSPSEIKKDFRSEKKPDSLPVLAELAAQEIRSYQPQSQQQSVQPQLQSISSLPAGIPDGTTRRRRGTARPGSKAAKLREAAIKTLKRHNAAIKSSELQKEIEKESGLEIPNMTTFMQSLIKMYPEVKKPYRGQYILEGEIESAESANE

Row | Sequence | binding signal [E-score]
1 | CGTAGGAC | -0.151
2 | AGACAAAC | -0.000255
3 | AGTCGCCA | -0.31
4 | CGTTGTTC | 0.119
5 | AAGTGCAC | 0.0133
6 | AAAAATCT | 0.00788
7 | ATAACTTA | 0.265
8 | GCCTCGAC | -0.0833
9 | ACGTTGCA | 0.0396
10 | GGGAGAAC | -0.179
11 | AGCTTATC | 0.0235
12 | CTACAGCC | 0.168
13 | ATACAAAG | 0.29
14 | GCACTGCC | -0.278
15 | AGAGCGCA | -0.186
16 | CTTTGCAC | 0.0441
17 | ACAGAGAA | 0.0819
18 | CTGTTGTC | -0.0202
19 | CTTGGTCC | -0.205
20 | ACCCGCTC | -0.107
21 | GGCGAACA | -0.132
22 | ACATCACT | 0.101
23 | ATGTAACA | 0.161
24 | TCCCTCGA | -0.117
25 | AGGCATAT | 0.171

Row | Sequence | binding signal [E-score]
26 | CTCAATCC | -0.117
27 | GAGGGTGC | -0.162
28 | ATTTAGGG | 0.000918
29 | CAAGCATC | 0.00574
30 | CTGTGTCC | -0.0853
31 | TAATCGCA | 0.0752
32 | ACATACGA | 0.126
33 | ATGTATTC | 0.147
34 | GTATTGTA | 0.238
35 | AAGGACCC | -0.317
36 | AAAGGGCT | -0.285
37 | AGAGCCAC | -0.225
38 | CGAGGTTA | 0.0111
39 | AGGGTCTC | -0.367
40 | ATGTCCCG | -0.167
41 | ACCCCTCT | -0.302
42 | CACGCATC | 0.0339
43 | AGCTACCT | 0.164
44 | CTACGAAG | 0.0895
45 | AAATTATC | 0.319
46 | ATGATTTA | 0.0907
47 | ACCGAAAA | 0.241
48 | ATAGAGTG | 0.00769
49 | CCTGCAAC | -0.0674
50 | CATCGCCG | -0.247

Row | Sequence | binding signal [E-score]
51 | AACTAATA | 0.357
52 | CGATGGAA | 0.0214
53 | TCCGGGCA | -0.232
54 | AAACCACA | 0.04
55 | ACTTAGAG | 0.0709
56 | ATAATCGA | 0.196
57 | ATAGACAA | -0.00553
58 | AATGTGGA | 0.0587
59 | ACAGACGA | -0.048
60 | GATATGCC | -0.104
61 | AGAAATTC | 0.228
62 | ATTATCGG | 0.219
63 | AACTGAAG | -0.0822
64 | ACATTAAG | 0.141
65 | CTACATAG | 0.153
66 | TGATGCAA | -0.0283
67 | CCGGGCTC | -0.338
68 | CGGATTCC | -0.313
69 | CTTCTCCA | 0.0579
70 | AACGACTC | -0.0273
71 | ACCTTGAG | -0.11
72 | AGGGTTGC | -0.108
73 | GGCCCACC | -0.424
74 | GATAACCC | -0.126
75 | ATGTAATG | 0.228

Row | Sequence | binding signal [E-score]
76 | AAGTCTAT | 0.021
77 | GACGAACC | -0.176
78 | GCCCCGGC | -0.295
79 | CTGCACAG | 0.0169
80 | GACACATA | 0.123
81 | AAGCGGTG | -0.18
82 | CCATGCCG | -0.276
83 | CCCAGAGC | -0.345
84 | GACCGGTA | 0.134
85 | AGGTTGGA | -0.206
86 | ACCGTCGG | -0.145
87 | AGACACAT | 0.156
88 | GACTTTGC | -0.0328
89 | GTATGGCA | 0.00824
90 | CTGACCTC | -0.257
91 | CAACTTAA | -0.00322
92 | AGGTAGGA | 0.0438
93 | CTCTTCGA | -0.23
94 | AGACAGTA | 0.0571
95 | TCGATCAA | 0.12
96 | TCAACGGA | -0.0288
97 | AATTAGTC | 0.257
98 | ATCCTAAT | 0.0786
99 | AGAACTAG | 0.298
100 | CCCCACTC | -0.373

Row | Sequence | binding signal [E-score]
101 | GCAACACA | -0.00483
102 | CGATCTTC | -0.0351
103 | GAACGACC | -0.0957
104 | CCCCTGCG | -0.249
105 | ATGTTACA | 0.229
106 | ATAGGATC | 0.213
107 | GCCCATAC | -0.173
108 | AGCGTCAC | -0.1
109 | AAATACTG | 0.327
110 | ATAGGCAC | 0.12
111 | CTCTGTTC | 0.0552
112 | ACGAAACT | 0.337
113 | AGGCTATG | -0.338
114 | AGCACCCA | -0.0379
115 | AGCGCGCG | 0.123
116 | CTCTGGCC | -0.235
117 | GACTGATA | 0.238
118 | GGACCATA | 0.0127
119 | TCGCGAAA | 0.165
120 | GCCGCCCC | -0.466
121 | CAAAAGGC | -0.0979
122 | AGCCCAGG | -0.222
123 | ACCACTCT | 0.00781
124 | GCATCCCA | -0.196
125 | GGCGCTAA | -0.0299

Row | Sequence | binding signal [E-score]
126 | GATGTCGC | -0.226
127 | GCCAAGGC | -0.306
128 | ATTGTGAC | 0.0441
129 | CATAAACG | 0.0452
130 | ACCTCTAC | 0.205
131 | CCTATCAA | 0.161
132 | ACAAATAA | 0.333
133 | AAGGAAAA | -0.0492
134 | CCCACTAA | -0.00169
135 | GCTATGCA | 0.0574
136 | ATGTCTAC | 0.0623
137 | CCCGCCAG | -0.328
138 | CATATCTC | 0.106
139 | CGTGGCAC | -0.367
140 | CTACTCCA | 0.154
141 | GGGTCAAC | -0.212
142 | CGACGAGC | -0.0768
143 | AAGAGCTT | -0.0281
144 | AGGTATAT | 0.258
145 | ATCAGAAC | 0.173
146 | CACCATGC | -0.142
147 | GGGAGAAA | -0.11
148 | GCGCTCGA | -0.175
149 | CTCGGGCC | -0.279
150 | GACCAGCA | -0.271

Row | Sequence | binding signal [E-score]
151 | TAGGGCCA | -0.106
152 | CATCACCC | -0.208
153 | ATGGAACG | -0.0345
154 | AAAATCTA | 0.244
155 | AGTCAGGA | -0.131
156 | AGATATCG | 0.218
157 | GAAGCAAC | 0.0226
158 | ACTGCAAC | 0.0921
159 | ATCGCTCC | -0.298
160 | AATGCAAA | 0.0311
161 | ACAGCGCT | -0.00367
162 | CTCATACA | 0.166
163 | GCTCGAGC | -0.18
164 | AGCCCATG | -0.112
165 | AGATTAGA | 0.303
166 | GTGGCTGA | -0.0523
167 | GCACTAAA | 0.146
168 | ACTTCCAA | 0.0268
169 | GAATTGTA | 0.254
170 | CGTCTAAG | -0.083
171 | ATCAAGAG | 0.119
172 | CTCATAGC | -0.145
173 | AATGATCC | 0.00785
174 | ACTCGGAT | 0.149
175 | CAATGTGC | 0.14

Row | Sequence | binding signal [E-score]
176 | ATACTGTG | 0.0179
177 | GATGTAGA | 0.209
178 | CCTAGCCA | -0.0811
179 | AAATCACT | 0.0315
180 | GGCAACCC | -0.203
181 | ACCAACGT | -0.0441
182 | AGCGCAAA | 0.0549
183 | GAGGGGGC | -0.397
184 | AAAGTGGC | 0.0515
185 | CTGATACA | 0.207
186 | GAGAGCGA | -0.148
187 | AAGCGTCA | -0.0889
188 | ACTCGCAG | -0.15
189 | GAGCCTGC | -0.271
190 | GACCCACA | -0.107
191 | ACAACGCT | -0.0157
192 | AAATATAC | 0.376
193 | AGAGAGAA | -0.0854
194 | TCATTGAA | 0.1
195 | ATTGCACC | 0.127
196 | ATAAGCCC | -0.214
197 | AAACGCAC | -0.143
198 | AAAGCGGA | 0.0394
199 | TAAGAATA | 0.151
200 | AATTTATC | 0.242

Row | Sequence | binding signal [E-score]
201 | CGACTAGC | -0.0143
202 | GCCATCGC | -0.225
203 | CCGGTCGA | -0.102
204 | AAGTGACA | -0.109
205 | AACTCGGA | 0.0147
206 | ATCCTCGC | -0.225
207 | CGGGGTAG | -0.149
208 | GCTAAACC | -0.102
209 | CCCACCCC | -0.433
210 | ACATAGTA | 0.306
211 | ACCCGTCT | -0.228
212 | GAAATTTC | 0.261
213 | ATTCTCAC | 0.135
214 | ATGCGCGA | 0.146
215 | CAAACCGA | 0.0252
216 | TAATGGGA | -0.132
217 | CGCCGCCC | -0.472
218 | CACGGGAG | -0.29
219 | CCAACGAC | -0.245
